In patent publication US12637513B2, “Method of treating cancer by administering an inhibitor of erythropoietin receptor activity comprising either erythropoietin receptor or erythropoietin protein” (ImmunEdge, Inc., priority 2022, dated 2026):

Target: T1, EPO/EPOR interaction (EPOR-CD131-Fc and EPO) (Homo sapiens, UniProt P19235+P32927)
T1 construct: Chimeric Fc fusion proteins of the extracellular domains of human EPOR and human CD131; purchased Sino Biological CT010-H02H
T1 sequence (P19235 25-250 limits assumed): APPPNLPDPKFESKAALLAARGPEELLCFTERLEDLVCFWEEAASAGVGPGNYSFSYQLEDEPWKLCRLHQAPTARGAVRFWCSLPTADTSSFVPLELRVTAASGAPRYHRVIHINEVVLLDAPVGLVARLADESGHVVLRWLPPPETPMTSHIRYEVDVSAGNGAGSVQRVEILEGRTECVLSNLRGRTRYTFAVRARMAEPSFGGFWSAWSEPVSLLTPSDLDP
T1 sequence (P32927 17-443 limits assumed): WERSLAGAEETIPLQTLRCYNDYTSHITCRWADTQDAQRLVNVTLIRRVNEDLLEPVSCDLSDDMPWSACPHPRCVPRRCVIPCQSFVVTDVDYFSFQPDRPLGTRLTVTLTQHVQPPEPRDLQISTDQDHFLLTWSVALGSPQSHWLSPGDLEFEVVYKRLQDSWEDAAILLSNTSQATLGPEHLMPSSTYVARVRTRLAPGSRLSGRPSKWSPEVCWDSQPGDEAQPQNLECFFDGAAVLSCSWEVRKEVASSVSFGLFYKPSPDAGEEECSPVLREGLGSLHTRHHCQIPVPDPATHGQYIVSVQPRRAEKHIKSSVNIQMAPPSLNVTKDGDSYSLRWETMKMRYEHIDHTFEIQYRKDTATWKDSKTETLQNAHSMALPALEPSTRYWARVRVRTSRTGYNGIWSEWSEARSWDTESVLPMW
Test: Octet blocking of the EPO/EPOR interaction by hybridoma supernatants
Assay type: binding
Settings: EPO 10 nM

B1: EPORab - M38: hybridoma antibody clone, VH/VK in Table 10 (antibody, V domains shown)
VH: QVQLVESGGGVVQPGRSLRLSCAASGFTFSSYGMHWVRQAPGKGLEWVAFIWYDGRNKNYVDSVKGRFTISRDNSKNTLYLQMNSLRAEDTAVYYCARDRGDYVFDYWGQGTLVTVSS
VL: DIQMTQSPSSLSASVGDRVTITCQASQDIRNYLNWYQQKPGKAPKLLIYDASNLETGVPSRFSGSGSGTDFTFTISSLKPEDIATYYCQQYDNLLFTFGPGTKVDIK
In the case of B1, the “blocking of the EPO/EPOR interaction” value is reported as “did not block”.
